Values joined by “and” are separate entries in the source; they are usually repeats but may differ in a detail not shown here. Equal entries are not always repeated. Hit rate of the full screen: of about 16,000 compounds, about 40 (0.2%) were called active. Not shown: some 1% with an inconclusive outcome. The call rests on the fitted dose curve; in most records, active means well fitted activation curve with a large enough effect; inconclusive means small, poorly fitted or top-dose-only effect, or another doubt; inactive means no such curve, though single readings can be large or run the other way. This is one part of the list. Positions of bridges follow the written chain, without caps; N, C: chain ends. Residues, ends and D or L forms follow the SMILES beside them.

Experimental findings from PubChem BioAssay AID1645887 (National Center for Advancing Translational Sciences (NCATS), 2021) are described below.
On the % scale 0 is the no-effect control and ±100 the full control effect.

This test concerns the target Rap guanine nucleotide exchange factor 4 (Homo sapiens) (UniProt Q8WZA2). Nature of the test: Validation qHTS for agonist of cAMP-regulated guanine nucleotide exchange factor 4 (EPAC2).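 Further: exchange makes BODIPY-GDP fluorescence drop when released from Rap1B; series mostly up to about 150 µM.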 Particulars: EPAC2 Rap1B BODIPY-GDP exchange, fluorescence; activation: hits give high values. In short, it runs like this: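 Fluorescent exchange assay: 100 nM EPAC2 with 250 nM RAP1B-BODIPY-GDP and 50 uM GDP; compound added, 5 min at room temperature, then read (ex 480/em 540 nm) every 5 min for 30 min. Normalized to 6.5 mM cAMP agonist control.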
Chain of UniProt Q8WZA2 (Q8WZA2 whole entry, looked up): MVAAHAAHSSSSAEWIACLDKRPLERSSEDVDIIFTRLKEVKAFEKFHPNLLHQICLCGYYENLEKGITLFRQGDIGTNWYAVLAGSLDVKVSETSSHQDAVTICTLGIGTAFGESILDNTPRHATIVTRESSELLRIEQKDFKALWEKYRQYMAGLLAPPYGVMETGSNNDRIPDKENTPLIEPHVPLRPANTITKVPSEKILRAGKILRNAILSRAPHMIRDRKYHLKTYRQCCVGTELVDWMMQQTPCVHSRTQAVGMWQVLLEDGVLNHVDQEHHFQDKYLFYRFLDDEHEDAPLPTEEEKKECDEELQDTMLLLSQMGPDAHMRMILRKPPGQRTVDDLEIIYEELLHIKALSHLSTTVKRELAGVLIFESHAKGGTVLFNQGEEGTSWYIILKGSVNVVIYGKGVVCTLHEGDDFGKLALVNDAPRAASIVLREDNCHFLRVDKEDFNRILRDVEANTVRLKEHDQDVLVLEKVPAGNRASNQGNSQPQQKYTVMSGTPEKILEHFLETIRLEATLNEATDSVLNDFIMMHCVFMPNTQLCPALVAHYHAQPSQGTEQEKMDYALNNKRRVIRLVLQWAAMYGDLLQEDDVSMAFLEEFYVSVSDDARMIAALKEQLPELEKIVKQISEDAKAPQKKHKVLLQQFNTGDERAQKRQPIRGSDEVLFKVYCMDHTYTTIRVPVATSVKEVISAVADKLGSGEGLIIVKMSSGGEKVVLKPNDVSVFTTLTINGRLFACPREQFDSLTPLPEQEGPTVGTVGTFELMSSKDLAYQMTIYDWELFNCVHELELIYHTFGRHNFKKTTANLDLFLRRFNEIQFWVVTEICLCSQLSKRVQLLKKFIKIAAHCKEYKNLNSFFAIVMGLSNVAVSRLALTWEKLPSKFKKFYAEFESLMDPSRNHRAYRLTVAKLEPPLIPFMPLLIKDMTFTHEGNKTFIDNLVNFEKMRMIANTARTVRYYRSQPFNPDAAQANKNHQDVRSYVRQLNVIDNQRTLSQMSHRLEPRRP
For orientation: Quantitative high-throughput screening tests each substance at several concentrations.
With `CNS(=O)(=O)Cc1ccc2[nH]cc(CCN(C)C)c2c1`, the activation is inactive: -28%.

For the compound `O=c1c(O)c(-c2ccc(O)c(O)c2)oc2cc(O)ccc12`, the activation was inactive: -0.0805% and inactive: -11.3%.

With `CN(Cc1cnc2ccccn12)C1CCN(c2cccc(NC(=O)c3cccnc3)c2)CC1`, the activation was inactive: 6.25%.

For `Cc1nc2cnc(N3CCN(C)CC3)nc2n(C)c1=O`, the activation is inactive: -4.01%.

For `Cc1nc(C)n(CC(=O)NCC2Cc3cc(-c4ccsc4)cc(Cl)c3O2)n1` (stereo not drawn), the activation is inactive: -10.7%.

Take `COc1ccc(C2COc3c(ccc(O)c3OC)C2)c(OC)c1O` (stereo not drawn): the activation is inactive: -11.2%.

With `COc1cc(=O)n2c(c1C(=O)N(C)Cc1nccs1)CCN(Cc1cccc(F)c1F)CC2`, the activation is inactive: -3.03%.

For `COc1ncc2nc(-c3cn(C)c4ccccc34)c(=O)n(CCC#N)c2n1`, the activation was inactive: -8.41%.

With `COc1ccccc1CC(=N)N1C[C@@H]2C(=O)CCC(c3ccccc3)(c3ccccc3)[C@@H]2C1`, the activation was inactive: -21.5%.

As for `CC(C)(N=NC(C)(C)C(=N)N)C(=N)N`, the activation is inactive: -6.54%.

For the compound `COc1ccc2[nH]cc(CCNc3ccnc(-c4cccc(NS(C)(=O)=O)c4)n3)c2c1`, the activation is inactive: -10.5%.

As for `COc1cc(C(=O)NS(=O)(=O)c2ccccc2C)ccc1Cc1cn(C)c2ccc(NC(=O)OC3CCCC3)cc12`, the activation was inactive: -32.2%.

As for `OC[C@H]1O[C@@H](O[C@H]2[C@H](O)[C@@H](O)[C@H](O)O[C@@H]2CO)[C@H](O)[C@@H](O)[C@@H]1O`, the activation was inactive: -15.4%.

With `COc1cc(OC)c(OC)cc1CN1CCC(n2cc(C(=O)N3CCCCC3)nn2)CC1`, the activation is inactive: -15.5%.

Regarding `COc1ccc2[nH]cc(CCNc3cc(-c4ccoc4)ncn3)c2c1`, the activation was inactive: -5.66%.

`CCN[C@@H]1C[C@H](N)[C@@H](OC2OC(CN)=CCC2N)[C@H](O)[C@H]1O[C@H]1OC[C@](C)(O)[C@H](NC)[C@H]1O` (stereo partly drawn): the activation was inactive: 7.14%.

With `Cc1cc(C2CCCCC2)n(O)c(=O)c1`, the activation is inactive: -11.9% and inactive: -8.75%.

Take `CCS(=O)(=O)Nc1cc(C(=O)N2C[C@@H](C)O[C@@H](C)C2)c2c(c1)nc(-c1ccccc1)n2C`: the activation was inactive: 2.73%.

In the case of `CC(=O)N1CCC2(CC1)CCN(C(=O)Nc1cccc(C#N)c1)CC2`, the activation was inactive: -4.43%.

Regarding `C[C@@]12CC[C@@H]3c4ccc(O)cc4C[C@H](CCCCCCCCCS(=O)CCCC(F)(F)C(F)(F)F)[C@H]3[C@@H]1CC[C@@H]2O` (stereo partly drawn), the activation was inactive: -22.7%.

Consider `O=C(c1ccnc(-n2cnnn2)c1)N1CCOc2ccc(C(O)CCc3ccccc3)cc2C1` (stereo not drawn), for which the activation was inactive: -4.82%.

For `CCC1(C2CCN(C(=O)c3cccc(F)c3F)CC2)NC(=O)N(CCc2scnc2C)C1=O` (stereo not drawn), the activation is inactive: 6.74%.

Consider `O=S(=O)(c1ccccc1)N1CCC2(CC1)CN(c1ccccc1)C2`, for which the activation was inactive: -3.34%.

For the compound `O=c1c(-c2ccc(F)cc2)nc2cnc(N3CCOCC3)nc2n1CCc1ccccc1`, the activation is inactive: -1.56%.

Turning to `Oc1ccc(/C=C/c2ccc(/C=C/c3ccc(O)cc3)c(Br)c2)cc1`, the activation is inactive: -2.2%.

Take `CS(=O)(=O)N1CCC2(CC1)CN(C(=O)Nc1cccc(F)c1)C2`: the activation was inactive: -18.8%.

Take `CC1(C)S[C@@H]2C(C(=O)O)NC(=O)N2C1C(=O)O` (stereo partly drawn): the activation was inactive: -3.68%.

In the case of `Oc1cc2c(c(Cl)c1O)CCNC[C@H]2c1ccccc1`, the activation was inactive: -2.9%.

In the case of `O=C(Nc1ccc(C(=O)Nc2ccc(C(=O)Nc3ccc(S(=O)(=O)O)c4cc(S(=O)(=O)O)cc(S(=O)(=O)O)c34)cc2)cc1)Nc1ccc(C(=O)Nc2ccc(C(=O)Nc3ccc(S(=O)(=O)O)c4cc(S(=O)(=O)O)cc(S(=O)(=O)O)c34)cc2)cc1`, the activation is inactive: -35.4% and inactive: -24%.

As for `COc1c(O)c2c(=O)cc(OC)c3c4c(OC)cc(=O)c5c(O)c(OC)c(C[C@@H](C)OC(=O)c6ccccc6)c(c(c1C[C@@H](C)OC(=O)Oc1ccc(O)cc1)c23)c54`, the activation is inactive: 6.32%.

Turning to `S=C1SCN(Cc2ccccc2)CN1Cc1ccccc1`, the activation is inactive: -7.18%.

Turning to `Cn1cccc1C(=O)N1CCC2(CC1)CCN(c1ccccc1)CC2`, the activation was inactive: -6.03%.

For `CC(=O)c1ccc(F)c(-c2cc(C)cc3c2OC(CNC(=O)c2cccnc2)C3)c1` (stereo not drawn), the activation is inactive: 3.26%.

`N#Cc1cccc(-c2cncnc2NCCc2cnc[nH]2)c1`: the activation was inactive: -13.4%.

For the compound `O=C(O)c1cc2cc(Cl)ccc2[nH]1`, the activation was inactive: -6.92%.

For `COC(=O)C1CCN(Cc2ccc3c(c2)CN(C(=O)c2sc(C)nc2C)CCO3)CC1`, the activation is inactive: -16%.

For the compound `C[C@H]1CCC(=O)N([C@H](CN=[N+]=[N-])Cc2ccccc2)CC1`, the activation was inactive: -10.3%.

For `COCC(=O)N1CCC2(CC1)CCN(c1ccccn1)CC2`, the activation is inactive: -18.7%.

For the compound `COc1ccccc1CN1CC2(CCN(C(=O)c3cnccn3)CC2)C1`, the activation was inactive: -16.6%.

For `O=C(CCCN1CCN(c2ccc(F)cc2)CC1)NC1c2ccccc2CSc2ccccc21` (stereo not drawn), the activation is inactive: -5.59%.

As to `Cc1cccc2cc(CN(C(=O)c3ccc(N4CCCCC4)cc3)C3CC3)c(N3CCC(O)CC3)nc12`, the activation was inactive: 1.62%.

Regarding `COc1ccc2ccc(=O)oc2c1`, the activation was inactive: -10.1%.

`OC[C@H]1O[C@@H]2O[C@H]3[C@H](O)[C@@H](O)[C@@H](O[C@H]4[C@H](O)[C@@H](O)[C@@H](O[C@H]5[C@H](O)[C@@H](O)[C@@H](O[C@H]6[C@H](O)[C@@H](O)[C@@H](O[C@H]7[C@H](O)[C@@H](O)[C@@H](O[C@H]1[C@H](O)[C@H]2O)O[C@@H]7CO)O[C@@H]6CO)O[C@@H]5CO)O[C@@H]4CO)O[C@@H]3CO`: the activation is inactive: -3.13%.

Regarding `NCCCC[C@H](NC(=O)[C@@H]1CCCN1C(=O)[C@@H]1CSSC[C@H](NC(=O)CNC(=O)CNC(=O)CN)C(=O)N[C@@H](Cc2ccc(O)cc2)C(=O)N[C@@H](Cc2ccccc2)C(=O)N[C@@H](CCC(N)=O)C(=O)N[C@@H](CC(N)=O)C(=O)N1)C(=O)NCC(N)=O` (H-GGGCYFQNCPKG-NH2; disulfide 4-9), the activation was inactive: -2.01%.

`CCOC(=O)[C@@H](N)CS`: the activation was inactive: 9.62%.

`Oc1ccc(Cl)cc1Cc1cc(Cl)ccc1O`: the activation was inactive: -25.9% and inactive: 23.4%.

`NS(=O)(=O)c1cc(C(=O)O)c(NCc2ccco2)cc1Cl`: the activation is inactive: -18.7% and inactive: 20.7%.

On to `CCc1ccc(S(=O)(=O)O)cc1`, for which the activation is inactive: -0.278%.

Regarding `COCCn1c(=O)c(C)nc2cnc(N3CCN(C)CC3)nc21`, the activation was inactive: -5.44%.

On to `CCCCC/C=C\CC(O)/C=C/c1cccc(CC(O)CCCCO)n1` (stereo not drawn), for which the activation is inactive: -72.1%.

Take `O=C(O)c1cc(=O)c2ccccc2o1`: the activation is inactive: -8.55%.

Consider `COc1ccccc1CN1CCCC2(CCN(C(=O)c3c(C)noc3C)CC2)C1`, for which the activation was inactive: -1.85%.

In the case of `CC(C)NC(=O)c1cn(C2CCC(NC(=O)C(C)(C)C)CC2)nn1` (stereo not drawn), the activation is inactive: -0.269%.

For the compound `CN(CCc1ccc(Cl)c(Cl)c1)CCN1CCCCCC1`, the activation is inactive: -12.4%.

Regarding `COc1ccc2oc(-c3ccccc3)c(OC)c(=O)c2c1`, the activation is inactive: -0.783%.

Turning to `COc1ccc(CN2CCN(C(C)=O)CC2)cc1OC1CCN(C(=O)c2ccc3[nH]c(C)c(C)c3c2)CC1`, the activation is inactive: -13.8%.

`CCCCCCCCCCCCC/C=C/[C@@H](O)[C@H](CO)NC(C)=O`: the activation was inactive: -30.8%.

With `CC(C)NC(=O)N1CCC2(CC1)CCN(C(=O)c1cc(C(F)(F)F)cc(C(F)(F)F)c1)CC2`, the activation is inactive: -27.7%.

Take `O=C(c1csnn1)N1CCC2(CCN(Cc3nccs3)CC2)CC1`: the activation was inactive: 1.77%.

For the compound `Cc1cc(CNC(=O)CCN2Cc3cc(Cl)ccc3OC(C)C2)nn1C` (stereo not drawn), the activation was inactive: 2.24%.

Take `C#CCC(Cc1cnc2nc(N)nc(N)c2n1)c1ccc(C(=O)N[C@@H](CCC(=O)O)C(=O)O)cc1` (stereo partly drawn): the activation is inactive: 4.51%.

Turning to `O=C(c1cc(C(F)(F)F)cc(C(F)(F)F)c1)N1CCC2(CCCN(c3ccccn3)C2)CC1`, the activation is inactive: -5.25%.

Turning to `O=[N+]([O-])c1cccc2c[nH]nc12`, the activation is inactive: -3.07%.

In the case of `Cn1c(=O)c(-c2cc(F)cc(F)c2)nc2cnc(N3CCNCC3)nc21`, the activation is inactive: 0.721%.

Consider `CC(C)(C)NCC(O)COc1cccc2[nH]c(=O)[nH]c12` (stereo not drawn), for which the activation is inactive: -22.2% and inactive: -21.6%.

As for `NC(=O)C(=O)N/N=C/c1ccc([N+](=O)[O-])o1`, the activation was inactive: -7.47%.

On to `COc1cc(=O)n2c(c1C(=O)N(C)Cc1nonc1C)CCN(Cc1cccc(Cl)c1)CC2`, for which the activation is inactive: -7.65%.

For the compound `CC(=O)N1CCC2(CCCN(Cc3ccccc3)C2)CC1`, the activation is inactive: 0.549%.

On to `COc1ccc(OC)c(-c2ccnc(-n3ncc(C(=O)N(C)CCc4ccccn4)c3C)n2)c1`, for which the activation was inactive: -12.8%.

`COc1ccc(C(=O)C[n+]2cc(Br)cc(Br)c2)cc1`: the activation is inactive: -7.1%.

Consider `CNCCCCc1cnc(C)c2[nH]c3ccccc3c12`, for which the activation is inactive: -4.63%.

With `CCCCCCCCCCCCCCCCSCC(COC)COP(=O)([O-])OCC[N+](C)(C)C` (stereo not drawn), the activation was inactive: -37%.

In the case of `CCOC(=O)NNc1ccc(N(CC)CC(C)O)nn1` (stereo not drawn), the activation is inactive: 6.95%.

Turning to `COc1ccccc1C1CN(Cc2cccc3nccnc23)Cc2ccccc2O1` (stereo not drawn), the activation is inactive: 12.9%.

Turning to `CC(=O)C[C@H]1c2cc(C(F)(F)F)ccc2S(=O)(=O)N1C1CCCCC1`, the activation was inactive: -26.3%.

For `OCc1ccccc1O`, the activation is inactive: -9.47%.

As for `Cc1ccc(C(=O)N2CCOc3ccc(CN4CCN(Cc5ccccn5)CC4)cc3C2)cc1`, the activation was inactive: -4.8%.

With `CNC(=O)[C@H]1O[C@@H](n2cnc3c(NCc4cccc(I)c4)nc(Cl)nc32)[C@H](O)[C@@H]1O`, the activation is inactive: 0.887%.
